# Experimental data from PubChem BioAssay AID1460 (National Center for Advancing Translational Sciences (NCATS), 2008).
# Out of some 270,000 compounds screened, about 5,800 (2.1%) were called active. The shares of active, inactive and inconclusive entries below differ from those in the screen. Calls follow the shape of the dose curve; as a rule, active = well fitted inhibition curve with a large enough effect; inconclusive = small, poorly fitted or top-dose-only effect; inactive = flat fitted curve, though single readings scatter. Where the call is inconclusive, the potency comes from a doubtful curve fit.
# Target: Microtubule-associated protein tau (Homo sapiens) (UniProt P10636)
# Chain of UniProt P10636 (P10636 whole entry, looked up): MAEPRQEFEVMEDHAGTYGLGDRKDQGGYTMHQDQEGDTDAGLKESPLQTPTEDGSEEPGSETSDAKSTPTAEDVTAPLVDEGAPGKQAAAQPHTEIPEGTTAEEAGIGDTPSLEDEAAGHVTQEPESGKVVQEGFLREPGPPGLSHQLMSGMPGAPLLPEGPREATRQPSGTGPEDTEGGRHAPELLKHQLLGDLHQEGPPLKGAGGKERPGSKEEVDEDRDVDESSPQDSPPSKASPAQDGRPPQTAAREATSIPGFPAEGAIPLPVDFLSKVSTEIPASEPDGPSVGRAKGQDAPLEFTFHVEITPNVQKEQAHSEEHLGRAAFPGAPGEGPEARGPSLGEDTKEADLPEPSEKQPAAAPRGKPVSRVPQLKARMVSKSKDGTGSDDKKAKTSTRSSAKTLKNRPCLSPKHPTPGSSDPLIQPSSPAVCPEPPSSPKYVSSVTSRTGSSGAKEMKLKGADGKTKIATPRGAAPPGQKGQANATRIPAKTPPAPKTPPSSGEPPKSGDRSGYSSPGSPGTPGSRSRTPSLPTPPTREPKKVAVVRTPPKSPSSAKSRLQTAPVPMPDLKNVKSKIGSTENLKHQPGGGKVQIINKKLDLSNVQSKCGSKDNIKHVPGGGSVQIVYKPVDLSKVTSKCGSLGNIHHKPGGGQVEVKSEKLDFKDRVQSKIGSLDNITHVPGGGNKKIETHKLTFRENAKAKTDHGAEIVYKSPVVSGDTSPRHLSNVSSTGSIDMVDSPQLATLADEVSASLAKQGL
# Test: qHTS for Inhibitors of Tau Fibril Formation, Thioflavin T Binding; also: nearly all actives have a fitted effect of over 55% in size
# Settings: recombinant tau K18 P301L (four-repeat tau fragment), heparin-induced fibrillization, ThT fluorescence; series mostly up to 57.4 µM; activity, negative = inhibition: at the top concentration
# Summary of the method: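 Tau K18 P301L fragment (15 uM unlabeled plus 0.24 uM Alexa 594-labeled) in 100 mM sodium acetate pH 7 with compound, fibrillization induced by 20 uM heparin for 6 hr at 37 C. Thioflavin T (30 uM) added, fluorescence read after 1 hr (ex 450, em 510 nm).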
# % is scaled to controls: 0 for no effect and ±100 for the full control effect; potency is read from the fitted curve at half-maximal effect; tags tell the direction and shape of the fitted curve.
SMILES,Potency,"activity, negative = inhibition"
N#C/C(=C\Nc1ccc2cn[nH]c2c1)c1nc(-c2ccc(Cl)cc2)cs1,"inconclusive: 22.4 µM [inhibitor, partial curve, poor fit]",–
O=C(Nc1ccc2oc(-c3cccnc3)nc2c1)c1ccc(-c2ccc(Cl)cc2)o1,"inconclusive: 0.631 µM [inhibitor, full curve]",–
N#CC(C(=S)Nc1ccccc1)c1nc2ccccc2[nH]1 (centres undefined),"inconclusive: 2.82 µM [inhibitor, full curve]",–
Cc1cc2oc(C(=O)Nc3sc4c(c3C(=O)NCC3CCCO3)CCC4)cc(=O)c2cc1C (centres undefined),"inconclusive: 6.31 µM [inhibitor, partial curve]",–
CCc1ccc(N2C(=O)CC(c3cc(OC)ccc3OC)C3=C2COC3=O)cc1 (centres undefined),–,inactive: -18.2%
COc1ccc(CNC(=O)CSc2nc3ccsc3c(=O)n2Cc2ccccc2Cl)cc1,–,inactive: -0.65%
CCc1ccc(CSc2nc(-c3ccc(OC)cc3)nc3c2Cc2c(CO)cnc(C)c2O3)cc1,–,inactive: -1.51%
Cc1noc(C)c1/C=N/Nc1ccc2ccccc2n1,–,inactive: -14.4%
CSCCC(NC(=O)c1cccc([N+](=O)[O-])c1)C(=O)O (centres undefined),–,inactive: -5.1%
CCOc1ccc(NC(=O)c2ccccc2OC)cc1,"inconclusive: 7.08 µM [inhibitor, partial curve]",–
COc1ccc(NC(=O)COc2ccc(/C=N/n3c(C)nnc3C)cc2OC)cc1,"inconclusive: 31.6 µM [inhibitor, partial curve]",–
Cc1ccc(C)c(-c2cc(C(=O)Nc3sc(C)c(C)c3C(N)=O)c3ccccc3n2)c1,"inconclusive: 10 µM [inhibitor, partial curve]",–
CCCCCCOc1ccc(/C(C)=N/NC2=NCCN2)cc1[N+](=O)[O-],–,inactive: 9.82%
CCCc1cc(=O)[nH]c(SCC(=O)Nc2ccc([N+](=O)[O-])cc2C#N)n1,active: 14.1 µM,–
CCOc1cc2sc(N3CCC(C(=O)Nc4ccc(C)cc4)CC3)nc2cc1Br,"inconclusive: 0.794 µM [inhibitor, full curve]",–
C[C@@H]1c2ccccc2CN1CC1=NCCN1,"inconclusive: 31.6 µM [inhibitor, partial curve]",–
O=S1(=O)Nc2c(ccc3cccnc23)-c2ccccc21,"inconclusive: 12.6 µM [inhibitor, partial curve]",–
COc1ccc(C(=O)/C=C/c2ccc(OC)c(CN3CCOCC3)c2)cc1,"inconclusive: 17.8 µM [inhibitor, partial curve, poor fit]",–
Cc1cc(C)cc(NC(=O)CSc2nncn3c2cc2occc23)c1,"inconclusive: 3.16 µM [inhibitor, full curve, poor fit]",–
Cc1ccc(-c2csc(-c3c[nH]c4ccccc34)n2)c(C)c1,active: 14.1 µM,–
Oc1[nH]c2ccccc2c1N=NC(=S)NCC1CCCO1 (centres undefined),–,inactive: -0.0048%
CCCn1nc(NS(=O)(=O)c2ccccc2)c2cc3cc(C)ccc3nc21,"inconclusive: 25.1 µM [inhibitor, partial curve]",–
COc1ccc(CNC[C@@H](CCCCN(C)Cc2ccc(OC)cc2)N2C[C@H](c3ccccc3)N(CCc3ccc(Cl)c(Cl)c3)C(=O)C2=O)cc1,"inconclusive: 25.1 µM [inhibitor, single point]",–

SMILES,Potency,"activity, negative = inhibition"
Cc1cc(C)c2c(N)c(-c3nc4ccccc4[nH]3)sc2n1,"inconclusive: 14.1 µM [inhibitor, partial curve]",–
Cc1cccc(-n2cnc(C(=O)NC3CCCCCC3)c2)n1,–,inactive: -2.39%
C=C(C)CSc1nc2sc3c(c2c(=O)n1CCCC)CCCC3,"inconclusive: 35.5 µM [inhibitor, single point]",–
Cc1ccc(CSc2ccc(-c3ccco3)nn2)cc1,"inconclusive: 6.31 µM [inhibitor, partial curve]",–
C/C(=N\Nc1ccc([N+](=O)[O-])cc1)c1cccc(N)c1,active: 3.55 µM,–
CCn1c2c(c(=O)n3ncc(C(=O)Nc4cccc(Cl)c4C)c13)CN(Cc1ccc(OC)cc1)CC2,"inconclusive: 28.2 µM [inhibitor, single point]",–
COc1ccc(N2CCn3c2nc2c3c(=O)n(CCc3ccccc3)c(=O)n2C)c(OC)c1,"inconclusive: 1.58 µM [inhibitor, partial curve, poor fit]",–
COc1cc(C)c(CC/C(C)=C/C=C/C(C)=O)c(C)c1C,"inconclusive: 20 µM [inhibitor, partial curve]",–
Cc1cccc(-[n+]2c(-c3cccc(Br)c3)[nH]c3nc4ccccc4nc32)c1,"inconclusive: 28.2 µM [inhibitor, partial curve]",–
Cc1ccccc1NC(=O)N1CCCC(c2nc(-c3ccc(C(C)C)cc3)no2)C1 (centres undefined),"inconclusive: 20 µM [inhibitor, partial curve]",–
O=[N+]([O-])c1cccc(COc2ncnc3cc([N+](=O)[O-])ccc23)c1,"inconclusive: 28.2 µM [inhibitor, partial curve]",–
CN(C)C(=O)CSc1nc(-c2ccccc2)c(-c2ccccc2)o1,–,inactive: -10.1%
CCN1C(C(=O)c2ccccc2)=C(OC(=O)C(C)C)c2ccccc2S1(=O)=O,"inconclusive: 15.8 µM [inhibitor, partial curve]",–
COc1cc2c(cc1NC(=O)CN(C)Cc1nc3ccccc3c(=O)[nH]1)oc1ccccc12,"inconclusive: 11.2 µM [inhibitor, partial curve]",–
Cc1cc([N+](=O)[O-])ccc1NC(=S)NC(=O)Cc1ccccc1,"inconclusive: 31.6 µM [inhibitor, single point]",–
CC1(C)OC(C)(C)/C(=C/Nc2ccc(O)cc2)C1=O,active: 14.1 µM,–
COc1cccc(C(=O)COC(=O)c2ccc(NC(C)=O)cc2)c1,"inconclusive: 11.2 µM [inhibitor, partial curve, poor fit]",–
O=C(N/N=C/c1ccco1)c1ccc(C(=O)N/N=C/c2ccco2)o1,"inconclusive: 15.8 µM [inhibitor, partial curve]",–
COc1ccc(OCC(=O)N/N=C2\CCc3ccccc32)cc1,"inconclusive: 3.98 µM [inhibitor, partial curve]",–
CC(=O)c1cccc(Nc2nc(-c3cccc([N+](=O)[O-])c3)cs2)c1,active: 3.98 µM,–
Cc1cc(N2CCCC2)n2nc(C)nc2n1,–,inactive: 0.67%
O=C1C(Nc2ccccc2)=C(N2CCCCC2)C(=O)c2ccccc21,active: 17.8 µM,–
O=C(O)CCCCCNC(=O)Cn1nnc2ccccc2c1=O,–,inactive: 1.65%

SMILES,Potency,"activity, negative = inhibition"
O=Cc1cn(-c2ccccc2)nc1-c1ccncc1,–,inactive: 2.74%
COc1ccc(/C=C2\N=C(c3c(-c4ccccc4)noc3C)OC2=O)cc1OC,–,inactive: -8.55%
Cc1ccc2c(c1)NC(=O)C(CC(=O)NCCCN1CCN(c3cc(Cl)ccc3C)CC1)O2 (centres undefined),"inconclusive: 31.6 µM [inhibitor, single point]",–
O=C(CN1CCN(Cc2ccccc2)CC1)Nc1ccc2c(c1)CCC2,–,inactive: -6.34%
CSc1ccc(/C=C/C(=O)OCC(=O)NC(C)C)cc1,"inconclusive: 31.6 µM [inhibitor, single point]",–
O=C(CSc1nc2ccccc2o1)N1CCN(C(=O)c2ccco2)CC1,–,inactive: -14.6%
CCCCCCn1c(CNC(=O)c2ccccc2)nc2ccccc21,–,inactive: -17.7%
COCCCN=C1NN=C(c2cc(C)n(-c3ccccc3F)c2C)CS1,"inconclusive: 20 µM [inhibitor, single point]",–
CC(=O)Nc1ccccc1-c1nc2ccc(C(=O)N3CCN(c4cccc(C)c4)C(C)C3)cc2[nH]c1=O (centres undefined),"inconclusive: 25.1 µM [inhibitor, partial curve, poor fit]",–
Cc1nn(Cc2ccc(Cl)cc2)c(C)c1NC(=O)c1noc2c1CCc1ccccc1-2,"inconclusive: 14.1 µM [inhibitor, partial curve]",–
Cc1cccc(-c2nc(SCC(=O)Nc3cccc(C(F)(F)F)c3)n3[nH]c(=O)cc3n2)c1,–,inactive: -14.6%
CCOc1ccc(CNC(=O)C2CCCN(S(=O)(=O)c3ccc4c(c3)CCCC(=O)N4)C2)cc1 (centres undefined),–,inactive: -4.04%
CC(C)(C)c1nnc2sc(SCC(=O)c3cccs3)nn2c1=O,"inconclusive: 17.8 µM [inhibitor, partial curve]",–
Cc1ccc(C(=O)CSc2nnc(COc3cc(C)cc(C)c3)o2)cc1,"inconclusive: 12.6 µM [inhibitor, partial curve]",–
COc1ccccc1N1CCN(/N=C/c2c(C)nn(-c3ccccc3)c2C)CC1,"inconclusive: 15.8 µM [inhibitor, partial curve]",–
CCCCC[n+]1ccn(C2=C([O-])c3ccccc3C(=O)/C2=N\S(=O)(=O)c2ccc(Br)cc2)c1,active: 11.2 µM,–
COc1ccc(NC(=O)c2ccc(OC(F)F)cc2)cc1Cl,"inconclusive: 11.2 µM [inhibitor, partial curve]",–
CCc1ccc(NC(=O)CSc2nc(-c3ccccc3)c(C#N)c(=O)[nH]2)cc1,"inconclusive: 39.8 µM [inhibitor, single point]",–
O=C(Nc1ccc2oc(-c3cccnc3)nc2c1)c1ccc(Br)o1,"inconclusive: 0.562 µM [inhibitor, full curve]",–
COC(=O)c1ccc2nc(Nc3nc4ccc(F)cc4s3)sc2c1,"inconclusive: 3.16 µM [inhibitor, full curve]",–
Cc1cc(C)c(C#N)c(SCC(=O)c2ccccc2)n1,"inconclusive: 31.6 µM [inhibitor, partial curve, poor fit]",–
CCn1c(Cc2cccn2C)nnc1SCC(=O)c1ccc(C)cc1,"inconclusive: 17.8 µM [inhibitor, partial curve, poor fit]",–
COc1ccc(C2c3[nH]c4ccccc4c3CCN2Cc2cccn2-c2ncccn2)cc1C (centres undefined),"inconclusive: 17.8 µM [inhibitor, single point]",–
